Assay results from the supplement of paper PMC4967469.

Experiments:
Assay in all cases: Viability of human cancer cell lines after 72 h of drug (GDSC screen)
CX-5461 = compound: Cc1cnc(CNC(=O)c2c(=O)c3ccc(N4CCCN(C)CC4)nc3n3c2sc2ccccc23)cn1 [CX-5461]; conditions: top dose 10.24 µM; top dose inferred
Experimental: (§1)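 Human cancer cell lines in 384-well plates, medium with 10% serum, drug for 72 h over a 256-fold dose range (nine 2-fold or five 4-fold steps up to the top dose). Adherent lines were fixed and stained with the nucleic acid dye Syto60, suspension lines read with resazurin; signal relative to control wells, capped at 0 and 100%. One two-parameter sigmoid per drug and line, fitted in a mixed model over all curves with the slope shared within a line.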

Obatoclax mesylate = compound: COC1=CC(c2cc3ccccc3[nH]2)=N/C1=C\c1[nH]c(C)cc1C [Obatoclax mesylate]; conditions: top dose 16 µM
Experimental: as §1

Bortezomib = compound: CC(C)C[C@H](NC(=O)[C@H](Cc1ccccc1)NC(=O)c1cnccn1)B(O)O [Bortezomib]; conditions: top dose 0.02 µM
Experimental: as §1

STF-62247 = compound: Cc1cccc(Nc2nc(-c3ccncc3)cs2)c1 [STF-62247]; conditions: top dose 10.24 µM; top dose inferred
Experimental: as §1

CP724714 = compound: COCC(=O)NC/C=C/c1ccc2ncnc(Nc3ccc(Oc4ccc(C)nc4)c(C)c3)c2c1 [CP724714]; conditions: top dose 10.24 µM; top dose inferred
Experimental: as §1

Paclitaxel = compound: CC(=O)O[C@H]1C(=O)[C@@]2(C)[C@H]([C@H](OC(=O)c3ccccc3)[C@]3(O)C[C@H](OC(=O)[C@H](O)[C@@H](NC(=O)c4ccccc4)c4ccccc4)C(C)=C1C3(C)C)[C@]1(OC(C)=O)CO[C@@H]1C[C@@H]2O [Paclitaxel]; conditions: top dose 0.1024 µM
Experimental: as §1

| Cell Line | AUC (CX-5461) | IC50 (CX-5461) | AUC (Obatoclax mesylate) | IC50 (Obatoclax mesylate) | AUC (Bortezomib) | IC50 (Bortezomib) | AUC (STF-62247) | IC50 (STF-62247) | AUC (CP724714) | IC50 (CP724714) | AUC (Paclitaxel) | IC50 (Paclitaxel) |
| --- | --- | --- | --- | --- | --- | --- | --- | --- | --- | --- | --- | --- |
| TE-5 (oesophagus, adherent) | 0.939 | > 10200 nM | 0.384 | 455 nM | 0.396 | 0.618 nM | 0.982 | > 10200 nM | 0.978 | > 10200 nM | 0.622 | 14.6 nM |
| TE-6 (oesophagus, adherent) | 0.755 | 4020 nM | 0.552 | 1420 nM | 0.829 | 15.4 nM | 0.974 | > 10200 nM | 0.908 | > 10200 nM | 0.501 | 6.44 nM |
| TE-8 (oesophagus, adherent) | 0.863 | 9890 nM | 0.188 | 107 nM | 0.406 | 0.678 nM | 0.968 | > 10200 nM | 0.956 | > 10200 nM | 0.321 | 1.95 nM |
| TE-9 (oesophagus, adherent) | 0.956 | > 10200 nM | 0.284 | 239 nM | 0.297 | 0.326 nM | 0.981 | > 10200 nM | 0.986 | > 10200 nM | 0.456 | 4.84 nM |
| TE-10 (oesophagus, adherent) | 0.889 | > 10200 nM | 0.158 | 92.1 nM | 0.406 | 0.693 nM | 0.983 | > 10200 nM | 0.983 | > 10200 nM | 0.354 | 2.54 nM |
| TE-12 (oesophagus, suspension) | 0.894 | > 10200 nM | 0.356 | 365 nM | 0.708 | 5.56 nM | 0.983 | > 10200 nM | 0.918 | > 10200 nM | 0.681 | 23.1 nM |
| TE-15 (oesophagus, suspension) | 0.697 | 2480 nM | 0.267 | 196 nM | 0.65 | – | 0.967 | > 10200 nM | 0.632 | 1560 nM | 0.268 | 1.27 nM |
| TGBC1TKB (biliary tract, adherent) | 0.989 | > 10200 nM | 0.448 | 720 nM | 0.555 | 1.76 nM | 0.986 | > 10200 nM | 0.986 | > 10200 nM | 0.62 | 13.7 nM |
| TGW (neuroblastoma, adherent) | 0.778 | 3550 nM | 0.107 | 70 nM | 0.781 | 7.07 nM | 0.992 | > 10200 nM | 0.99 | > 10200 nM | 0.887 | – |
| TK10 (kidney, adherent) | 0.98 | > 10200 nM | 0.294 | 230 nM | 0.378 | 0.536 nM | 0.978 | > 10200 nM | 0.949 | > 10200 nM | 0.709 | 28.6 nM |
| U-698-M (B-cell leukaemia, suspension) | 0.762 | 3670 nM | 0.176 | 105 nM | 0.735 | 5.86 nM | 0.947 | > 10200 nM | 0.972 | > 10200 nM | 0.952 | > 102 nM |
| UACC-257 (melanoma, adherent) | 0.932 | > 10200 nM | 0.422 | 582 nM | 0.436 | 0.801 nM | 0.982 | > 10200 nM | 0.97 | > 10200 nM | 0.748 | 40.3 nM |
| VA-ES-BJ (soft tissue, adherent) | 0.979 | > 10200 nM | 0.44 | 678 nM | 0.454 | 0.928 nM | 0.981 | > 10200 nM | 0.984 | > 10200 nM | 0.382 | 2.97 nM |
| VCaP (prostate, adherent) | 0.921 | > 10200 nM | 0.271 | 216 nM | 0.638 | 3.06 nM | 0.987 | > 10200 nM | 0.979 | > 10200 nM | 0.654 | 17.4 nM |
| WIL2-NS (lymphoid neoplasm, suspension) | 0.344 | 259 nM | 0.063 | < 62.5 nM | 0.5 | 1.25 nM | 0.93 | > 10200 nM | 0.925 | > 10200 nM | 0.462 | 5.16 nM |
| YT (lymphoid neoplasm, suspension) | 0.647 | 1520 nM | 0.128 | 87.3 nM | 0.93 | > 20 nM | 0.876 | 7600 nM | 0.976 | > 10200 nM | 0.992 | > 102 nM |
| no-10 (glioma, adherent) | 0.93 | > 10200 nM | 0.54 | 1320 nM | 0.255 | 0.208 nM | 0.983 | > 10200 nM | 0.976 | > 10200 nM | 0.444 | 4.33 nM |
| no-11 (glioma, adherent) | 0.911 | > 10200 nM | 0.58 | 1750 nM | 0.535 | 1.6 nM | 0.982 | > 10200 nM | 0.98 | > 10200 nM | 0.709 | 29.4 nM |

IC50 is the fitted dose that halves viability relative to control wells, and lower means more sensitive; fits outside the tested doses are given as limits. For AUC the same curve is integrated over the 256-fold range of doses and scaled to a fraction; it is 1 without any effect and falls as sensitivity rises. For some of these results: A top dose marked as inferred is not printed in the source and was worked back from the curve model.
